Here are results for 49 compounds from PubChem BioAssay AID1508623 (National Center for Advancing Translational Sciences (NCATS), 2021).

Out of some 48,000 compounds screened, about 450 (0.94%) were called active. Another 19% or so got no clear call; they are omitted. The call rests on the fitted dose curve; in most records, active means well fitted inhibition curve with a large enough effect; inconclusive means small, poorly fitted or top-dose-only effect; inactive means no such curve, though single readings can be large or run the other way. The list shows a part of the results.

The test is described as follows: Primary qHTS for Identification of Small Molecule Inhibitors of Huntingtin Promoter Activity. Further: nearly all actives have a fitted effect of over 50% in size. To be noted: HEK293 HTT promoter firefly luciferase reporter (activity 0% = vehicle and -100% = no light), 24 h; series mostly up to 57.5 µM; activity change, negative = inhibition: at the top concentration. In a few lines:
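HEK293 Fluc reporter, 2,500 cells/well, 24 h pre-culture; cpds up to 57.5 uM final, 24 h 37 degrees C; Dual-Glo, 10 min RT; normalized vehicle = 0%, zero RLU = -100%.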
(In general: Quantitative high-throughput screening tests each substance at several concentrations.)
`Cc1ccccc1CN1C(=O)c2ccccc2S(=O)c2ccc(C(=O)N3CCOCC3)cc21` (centres undefined): the “activity change, negative = inhibition” value was inactive: -15.2%.
Regarding `Cn1c(=O)c2cc(C(=O)NCCCN3CCN(c4ccc(F)cc4)CC3)sc2c2ccccc21`, the “activity change, negative = inhibition” value is inactive: -16.4%.
Next, `Cc1ccccc1CNC(=O)CN1C(=O)CCCc2ccccc21`: inactive: 5.55%; `N[C@H](Cc1c[nH]c2ccccc12)C(=O)O`: inactive: 2.24%; `Cc1ccc(C2CC(=O)N(Cc3ccc(F)cc3)c3c2c(C)nn3-c2nc(C)cc(C)n2)cc1` (centres undefined): inactive: -27.3%.
Consider `COc1ccc(CCNC(=O)CCCn2c(=O)c3ccccc3n(CC(=O)Nc3ccccc3C)c2=O)cc1OC`, for which the “activity change, negative = inhibition” value was inactive: 1.46%.
For the compound `O=C(CN1CCN(Cc2ccc(F)cc2)C1=O)NCc1ccc(F)cc1`, the “activity change, negative = inhibition” value was inactive: -6.04%.
Consider `Cc1sc(C2C(C#N)=C(N)N(c3ccc(Cl)cc3)C3=C2C(=O)CCC3)cc1CN1CCOCC1` (centres undefined), for which the “activity change, negative = inhibition” value was inactive: -13.6%.
With `O=C(COc1ccccc1)N(Cc1cccnc1)c1nc2c(F)cc(F)cc2s1`, the “activity change, negative = inhibition” value is inactive: -23.1%.
Take `CC1CCN(S(=O)(=O)c2ccc3c(c2)N(CC(=O)NCCCOC(C)C)C(=O)CO3)CC1`: the “activity change, negative = inhibition” value was inactive: -14.7%.
On to `Cc1ccsc1CN(C(=O)COc1ccccc1Cl)C1CCS(=O)(=O)C1` (centres undefined), for which the “activity change, negative = inhibition” value was inactive: -9.66%.
With `CCOC(=O)CSc1nc2sc3c(c2c(=O)n1Cc1ccccc1)CC(C(C)C)OC3` (centres undefined), the “activity change, negative = inhibition” value is inactive: 8.84%.
As for `CCC(C)NC(=O)CCCn1c(=O)c2cccn2c2ccccc21` (centres undefined), the “activity change, negative = inhibition” value was inactive: 7.08%.
As to `CCC(C(=O)NC1CCCCC1)n1c(SCc2ccccc2F)nc2ccncc21` (centres undefined), the “activity change, negative = inhibition” value was inactive: -24.9%.
Take `COCCNC(=O)CN1C(=O)COc2ccc(S(=O)(=O)N3CCCCCC3)cc21`: the “activity change, negative = inhibition” value is inactive: -13%.
Next, `CCc1ccc(NC(=O)CSc2ccc(-c3sc(-c4ccccc4)nc3C)nn2)cc1`: inactive: 0.961%.
Turning to `CCN(Cc1ccccc1)c1nc2c(S(=O)(=O)c3ccccc3)nnn2c2ccc(Cl)cc12`, the “activity change, negative = inhibition” value was inactive: -17.3%.
In the case of `Cc1nn(C(C)C(=O)NCCc2ccccc2)c(=O)c2c1sc1ccccc12` (centres undefined), the “activity change, negative = inhibition” value was inactive: -23.9%.
Next, `Cc1cc(C)c(NC(=O)CSc2nc3ccccc3c3nc(-c4ccccc4)nn23)c(C)c1`: inactive: -11.5%.
For the compound `CCc1ccc(C(c2ccccc2)c2c(C)[nH]c3ccccc23)s1` (centres undefined), the “activity change, negative = inhibition” value is inactive: -24.7%.
On to `Cc1cccc(CNC(=O)c2ccc3c(c2)N(C)CCS3)c1`, for which the “activity change, negative = inhibition” value is inactive: -21.5%.
For the compound `COc1ccc(NC(=O)Cn2c(=O)n(CCCC(=O)NCc3ccccc3Cl)c(=O)c3ccccc32)c(OC)c1`, the “activity change, negative = inhibition” value is inactive: -27.8%.
Next, `Cc1ccccc1CNC(=O)Cn1nc(C)c2nn(-c3ccc(Cl)cc3)c(C)c2c1=O`: inactive: -29.9%.
Take `CCOC(=O)c1sc2ccccc2c1S(=O)(=O)Nc1cc(OC)ccc1OC`: the “activity change, negative = inhibition” value is inactive: -16.1%.
Regarding `COc1ccc(CNCc2c(C(=O)O)c(C)n(Cc3ccccc3C)c2C)cc1OC`, the “activity change, negative = inhibition” value was inactive: -14%.
`Cc1ccc(C)c(N2CCN(S(=O)(=O)c3ccc4[nH]c5c(c4c3)CCCC5)CC2)c1`: the “activity change, negative = inhibition” value was inactive: -11.2%.
With `COc1ccc(N2CCN(c3ncccc3-c3nc(-c4ccccc4C)no3)CC2)cc1`, the “activity change, negative = inhibition” value is inactive: -4.64%.
Turning to `N#Cc1nc(-c2ccc(COc3ccc(Cl)cc3)o2)oc1N1CCCCC1`, the “activity change, negative = inhibition” value was inactive: -26.2%.
Next, `COc1ccccc1N1CCN(c2nc3c(S(=O)(=O)c4ccccc4)nnn3c3ccc(Cl)cc23)CC1`: inactive: 4.1%; `COc1ccc(CNS(=O)(=O)c2ccc(C(=O)N(C)C)s2)cc1`: inactive: -23.6%; `Fc1ccc(N2CCN(Cc3nnc(-c4ccccc4Cl)o3)CC2)cc1`: inactive: -29.5%.
As to `CCc1cccc(C)c1Nc1c(-c2ccc(F)cc2)nc2sccn12`, the “activity change, negative = inhibition” value is inactive: -23%.
Next, `CCOc1ccc(NC(=O)CSc2ncc(S(=O)(=O)c3ccc(F)c(C)c3)c(=O)[nH]2)cc1`: inactive: -9.81%.
In the case of `Cc1ccc(CNc2nc(-c3ccco3)nn2C(=O)c2ccccc2[N+](=O)[O-])cc1`, the “activity change, negative = inhibition” value was inactive: 32.5%.
Take `COc1ccc(N2CC(C(=O)NCCS(=O)(=O)N3CCN(c4ccccc4)CC3)CC2=O)cc1` (centres undefined): the “activity change, negative = inhibition” value was inactive: -4.09%.
Take `CC(C)OCCCNC(=O)c1cn(C)c2ccc(S(=O)(=O)N(C)C3CCCCC3)cc2c1=O`: the “activity change, negative = inhibition” value is inactive: -6.01%.
With `O=C(CCCN1CCN(c2ccccn2)CC1)c1ccc(F)cc1`, the “activity change, negative = inhibition” value is inactive: -18.3%.
With `COc1ccc(S(=O)(=O)N2CCC(Oc3cccc(C(F)(F)F)c3)CC2)cc1OC`, the “activity change, negative = inhibition” value was inactive: -11.9%.
As to `Cc1ccc2occ(-c3cc(-c4ccccc4)nc4c3COc3ccccc3-4)c(=O)c2c1`, the “activity change, negative = inhibition” value is inactive: -7.01%.
Consider `Cc1ccc(-n2c(=O)c3c(C)c(C(=O)N(C)C)sc3n(CC(=O)N(C)c3ccccc3)c2=O)cc1C`, for which the “activity change, negative = inhibition” value was inactive: -4.27%.
As to `Cc1ccc(C)c(NC(=O)CSc2nc3nccnc3c(=O)n2CCc2c[nH]c3ccccc23)c1`, the “activity change, negative = inhibition” value was inactive: -5.91%.
Next, `CCc1cccc(C)c1NC(=O)CN1CCN(Cc2ccccc2Cl)S1(=O)=O`: inactive: -3.5%; `O=C(Nc1ccc(-c2nc3cc(Cl)ccc3o2)cc1)c1cc(Br)ccc1Cl`: inactive: -14.5%; `CCN(C(=O)CSc1nc2ccccc2c2nc(CCn3c(C)nc4ccccc43)nn12)c1cccc(C)c1`: inactive: -8.98%.
Consider `COc1cc(C(=O)NC2(C(F)(F)F)C(=O)NC(C)=C2C#N)cc(OC)c1OC` (centres undefined), for which the “activity change, negative = inhibition” value was inactive: -7.11%.
For `CCN(CC)S(=O)(=O)c1ccc2c(c1)N(CC(=O)N1CCN(c3cccc(C)c3)C(C)C1)C(=O)CO2` (centres undefined), the “activity change, negative = inhibition” value is inactive: -24.1%.
As for `COc1ccc(-c2csc3nc(-c4ccc(Cl)cc4)oc(=O)c23)cc1`, the “activity change, negative = inhibition” value is inactive: -4.05%.
Turning to `Cc1cccc(NC(=O)CCn2cnnn2)c1`, the “activity change, negative = inhibition” value is inactive: -13.8%.
Next, `Cc1ccc(Nc2c(-c3ccc(N4CCOCC4)cc3)nc3ccc(C)cn23)cc1`: inactive: -5.72%.
